Test results published in PubChem BioAssay AID1347417 (National Center for Advancing Translational Sciences (NCATS), 2020).
Out of some 120,000 compounds screened, about 5,300 (4.4%) were called active. The shares of active, inactive and inconclusive entries below differ from those in the screen. Calls come from the whole dose curve; as a rule, active = well fitted inhibition curve with a large enough effect; inconclusive = small, poorly fitted or top-dose-only effect; inactive = no such curve, though single readings can be large or run the other way. Where the call is inconclusive, the potency comes from a doubtful curve fit.

assay: qHTS Primary assay for Inhibitors of Plasmodium falciparum Dd2 growth in vitro; note: nearly all actives have a fitted effect of over 65% in size; conditions: P. falciparum Dd2 growth, SYBR Green, 72 h; series mostly up to 28.9 µM
Summary of the method: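 Infected erythrocytes (Dd2, 0.3% parasitemia, 2.5% hematocrit final) are added to compound in RPMI-1640/Albumax II medium, grown 72 h at 37C in low oxygen, then lysed with saponin/Triton-X containing SYBR Green and read by fluorescence.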
Potency is the fitted concentration of half-maximal effect; tags give direction and shape of the fitted curve.

SMILES | Potency
O=C(c1ccccc1)N1CCC(n2c(=O)[nH]c3ccccc32)CC1 | inactive
CCCNC(=O)NC[C@@H]1C=C(C)[C@H](Cc2nc3ccc(C(=O)OC)cc3[nH]2)C[C@H]1C(C)C | inconclusive: 10 µM [inhibitor, partial curve]
CCC(=O)Nc1ccc(C2(C(=O)N3CCC(N4CCCCC4)CC3)CCCCC2)cc1 | inconclusive: 12.6 µM [inhibitor, single point]
Cc1ccc2nc(Nc3ccc(C)c(F)c3)c3nncn3c2c1 | inconclusive: 11.2 µM [inhibitor, single point]
CCN1CCCC1CNC(=O)CCC1CCN(Cc2ccc(Cl)o2)CC1 (stereo not given) | inactive
Cc1oc(-c2ccccc2Cl)nc1Cn1c(SCc2cccc(F)c2)nc2cccnc21 | inconclusive: 17.8 µM [inhibitor, single point]
c1csc(-c2nc3nccc(-c4cc5ccccc5o4)n3n2)c1 | inconclusive: 0.562 µM [inhibitor, full curve, poor fit]
CC(=O)c1cccc(NC(=O)CC(c2ccc(C)cc2)N2Cc3ccccc3C2=O)c1 (stereo not given) | inconclusive: 10 µM [inhibitor, single point]
CC(C)n1cc(CN2CCCC23CCN(c2ccc(C(F)(F)F)cn2)CC3)cn1 | inconclusive: 2 µM [inhibitor, full curve]
CN(Cc1ccc(F)cc1)c1ccc2ncc(Nc3ccnc(N4CCOCC4)c3)n2n1 | active: 3.98 µM
CCCNC(=O)[C@@H]1Cc2cn(Cc3cccnc3)c3cccc(c23)[C@H](CC(C)C)N1 | inconclusive: 2.51 µM [inhibitor, partial curve, poor fit]
COc1ccc(C)cc1NS(=O)(=O)c1c(C(=O)N2CCCCCC2)c(C)n(C)c1C | inconclusive: 8.91 µM [inhibitor, partial curve]
COCCn1c(=O)n([C@H]2CCCN(C(=O)c3cnccn3)C2)c2ncccc21 | inactive
COc1ccc(CC(=O)NCCc2csc(-c3cccc(C)c3)n2)cc1 | active: 12.6 µM
COCCn1cnc2ccc(-c3ccsc3)nc2c1=O | inconclusive: 14.1 µM [inhibitor, single point]
Cc1cn2nc(C(=O)N3CCC(NC(=O)Cc4ccccc4Cl)CC3)cc2c(=O)[nH]1 | inconclusive: 5.62 µM [inhibitor, partial curve, poor fit]
CCOc1ccc(C(=O)N2CC(c3nnc(C(C)C)o3)C3(CCOCC3)C2)cc1OCC (stereo not given) | inactive
Cc1ccc(S(=O)(=O)N2CCCC3(CCC(=O)N(C4CC4)C3)C2)cc1C (stereo not given) | inactive
Cc1nn(-c2ccc(C(F)(F)F)cc2)c(C)c1[C@@H]1C=C[C@@H](NS(=O)(=O)c2cccs2)C1 | inconclusive: 5.01 µM [inhibitor, partial curve, poor fit]
Cc1cnc(CC2CCCN(C(=O)C3CC3)C2)n1C(C)C (stereo not given) | inconclusive: 3.16 µM [inhibitor, partial curve]
O=C(C1CCCCC1)N1CCC(C2CCN(Cc3cccc(F)c3F)CC2)C1 (stereo not given) | inactive
COc1ccc(Cn2cc(S(=O)(=O)c3ccc(Cl)cc3)c(=O)c3cc4c(cc32)OCO4)cc1 | inconclusive: 17.8 µM [inhibitor, single point]

SMILES | Potency
Cc1cccc(NC(=O)Cn2cc(C(=O)c3ccco3)c3ccccc32)c1 | inconclusive: 0.178 µM [inhibitor, single point]
Cc1ccc(CNC(=O)c2ccc(Cn3c(=O)c4ccccc4n(CC(=O)Nc4ccc(C)cc4)c3=O)cc2)cc1 | inconclusive: 1.78 µM [inhibitor, partial curve, poor fit]
O=C(CC(c1ccccc1)c1ccc(Cl)cc1)N1CCOCC1 (stereo not given) | inactive
CCC(=O)N1c2ccccc2CC1C(=O)NCc1ccccc1Cl (stereo not given) | inconclusive: 17.8 µM [inhibitor, single point]
CCn1c(CN2CCC(C)CC2)nc2cc(NC(=O)COc3ccc(Cl)c(C)c3)ccc21 | inconclusive: 11.2 µM [inhibitor, single point]
COc1ccc(-c2nc(CSCC(=O)NCCc3ccccc3)c(C)o2)cc1 | inconclusive: 20 µM [inhibitor, single point]
CCc1ccc(-n2c(SCc3ccccc3Cl)nc3[nH]ncc3c2=O)cc1 | inconclusive: 17.8 µM [inhibitor, single point]
CN(Cc1ccccc1)c1ccc(-c2nc(-c3ccccn3)no2)cc1[N+](=O)[O-] | inconclusive: 17.8 µM [inhibitor, single point]
CCOCCCNC(=O)CN1C(=O)COc2ccc(S(=O)(=O)N3CCCC3)cc21 | inactive
O=C(NCCCN1CCOCC1)c1noc(-c2ccc[nH]c2=O)n1 | inactive
CCOc1ccc(NC(=O)c2sc3nc4c(c(-c5ccc(OC)cc5)c3c2N)C(=O)CC(C)(C)C4)cc1 | inconclusive: 3.55 µM [inhibitor, partial curve, poor fit]
O=C(c1ccncc1)N1CCCC(n2cc(-c3nc(C4CC4)no3)nn2)C1 (stereo not given) | inconclusive: 3.98 µM [inhibitor, single point]
CCOc1ccc(-n2cc(-c3ccccc3)c3c(N4CCN(c5ccccc5OC)CC4)ncnc32)cc1 | inconclusive: 2 µM [inhibitor, single point]
Cc1nn(C)c(C)c1CCC(=O)N1CCc2[nH]cnc2C1C(=O)O (stereo not given) | inactive
COc1ccccc1-c1cc(C(=O)NCCc2cnc[nH]2)c2c(c1)N(C)CCO2 | inconclusive: 20 µM [inhibitor, single point]
CO[C@@H]1CO[C@H]2[C@@H]1OC[C@@H]2n1nnnc1Sc1ncccn1 | inactive
COc1ccc(-c2noc(-c3cccnc3N3CCN(c4ccc(OC)cc4)CC3)n2)cc1 | inconclusive: 17.8 µM [inhibitor, single point]
O=C(Nc1cccc(Cl)c1)c1ccc2c(c1)CCN2S(=O)(=O)c1ccccc1 | inconclusive: 10 µM [inhibitor, single point]
O=C(Nc1ccc2oc(-c3ccncc3)nc2c1)c1ccccc1Cl | inconclusive: 10 µM [inhibitor, single point]
COCCc1noc([C@@H]2CC(F)(F)CN2C(=O)c2cccc(C)n2)n1 | inactive
CCc1ccccc1Nc1nn2c(=O)c3ccc(C(=O)NCCCOC(C)C)cc3nc2s1 | active: 11.2 µM
COc1cccc(NC(=O)c2ccc(-c3nc(COc4ccccc4)c(C)o3)cc2)c1 | inconclusive: 17.8 µM [inhibitor, single point]

SMILES | Potency
Cn1cc(CN2C[C@H](C(=O)Nc3ccncn3)C[C@H]2c2cccc(C(F)(F)F)c2)cn1 | inconclusive: 25.1 µM [inhibitor, single point]
COc1ccccc1CCNC(=O)C(=O)NCC(c1cccnc1)N1CCN(c2ccccc2)CC1 (stereo not given) | inconclusive: 10 µM [inhibitor, single point]
CCc1cccc(-n2nnc(S(=O)(=O)c3ccc(OC)cc3)c2C)c1 | inconclusive: 17.8 µM [inhibitor, single point]
O=C1NCCCCCCN(C(=O)C2(c3ccccc3)CC2)[C@H]2CCCC[C@@H]12 | inactive
Cc1cccc(C)c1NC(=O)C1CCCN1S(=O)(=O)c1cccc2nsnc12 (stereo not given) | inactive
COC(=O)c1cc(C#N)c(N2CCCC(O)(CN(C)C)CC2)nc1C (stereo not given) | inconclusive: 3.55 µM [inhibitor, full curve]
CC(C)CC(=O)N1C[C@@H](Oc2ccccc2)C[C@H]1C(=O)N1CCOCC1 | inconclusive: 3.98 µM [inhibitor, single point]
Cc1coc2c(C)c3oc(=O)c(CCC(=O)N4CCCCC4)c(C)c3cc12 | inconclusive: 20 µM [inhibitor, single point]
CCCCOC(=O)N1CCC(N2CCCC(C(=O)N3CCOCC3)C2)CC1 (stereo not given) | inconclusive: 0.158 µM [inhibitor, full curve, poor fit]
CCN(Cc1noc(C2CCC2)n1)C(=O)C1CCN(c2ccccc2)C1=O (stereo not given) | inactive
COc1ccc(NC(=O)CN2C(=O)NC3(CCC(C)CC3)C2=O)c(OC)c1 (stereo not given) | inactive
COc1cccc(CN2CCC3(CC2)CC(O)CCO3)c1 (stereo not given) | inconclusive: 10 µM [inhibitor, single point]
Cc1ccc(-n2c(C3CCN(C(=O)c4cc(Cl)ccc4F)CC3)n[nH]c2=O)cc1 | inactive
CN(Cc1cccnc1)c1nc2c(c(=O)[nH]1)CCN(Cc1ccc(F)cc1Cl)CC2 | active: 2.82 µM
O=c1c2c3c(nn2ccn1Cc1cc(=O)n2ccccc2n1)CCCC3 | inactive
CCn1cc(C(=O)N2CCN(c3cccc(C)c3)C(C)C2)c(=O)c2cc(S(=O)(=O)N3CCOCC3)ccc21 (stereo not given) | inconclusive: 0.0079 µM [inhibitor, full curve, poor fit]
O=C1NCCCCCCN(Cc2ccncc2)[C@@H]2CN(C(=O)c3ccsc3)CC[C@@H]12 | inactive
Cc1cc2cc(-c3c(C)noc3C)nc(NCCN(C)C)c2o1 | inconclusive: 2.24 µM [inhibitor, full curve, poor fit]
O=C1NCCCCCCN(C(=O)C2CC=CC2)[C@H]2C[C@H](c3nc(Cc4ccccc4)no3)C[C@@H]12 | inconclusive: 12.6 µM [inhibitor, partial curve, poor fit]
CCN(CC)CCCNC(=O)CCc1c(C)nc2c(c1C)c(=O)n(C)c(=O)n2C | inconclusive: 20 µM [inhibitor, single point]
CC(C)C[C@@H]1N[C@H](C(=O)N2CCN(c3ncccn3)CC2)Cc2c[nH]c3cccc1c23 | inconclusive: 17.8 µM [inhibitor, partial curve, poor fit]
